Measured values as given in PubChem BioAssay AID2675 (National Center for Advancing Translational Sciences (NCATS), 2010).
In all, about 280,000 compounds went through this assay and about 100 (0.036%) were called active. Inconclusive means that the source gave no clear call. Such entries were picked first, then a sample of the others. The call rests on the fitted dose curve; in most records, active means well fitted inhibition curve with a large enough effect in the signal ratio, with a control signal flat (not every such curve was filed as active); inconclusive means small, poorly fitted or top-dose-only effect, or effect the other way, or a change in a side signal; inactive means no such curve, though single readings can be large or run the other way; the % refers to the signal ratio. Potencies beside an inconclusive call are fits to weak or partial responses and may not hold up. A note “side channel” means that the fit belongs to a control or component signal, not to the main read-out.

Biological target: Muscleblind-like protein 1 (Homo sapiens) (UniProt Q9NR56)
Assay: qHTS Assay for Inhibitors of MBNL1-poly(CUG) RNA binding
Settings: TR-FRET MBNL1-His/biotin-(CUG)12 binding, 665/545 ratio; activity change, negative = inhibition: at 57.5 µM (top of the series)
Outline: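 TR-FRET readout: Ex 340 nm, 665/545 nm emission ratio, normalized to buffer-only (basal) and MBNL1-(CUG)12 controls. Complex of MBNL1-His with Biotin-(CUG)12, compounds 92 nM–58 uM, incubated 60 min at room temperature.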
On the % scale 0 is the no-effect control and ±100 the full control effect; potency means the concentration at half of the fitted maximal effect; tags describe the fitted curve by direction and shape or compound fluorescence and quenching.

UniProt Q9NR56, sequence (Q9NR56 whole entry, looked up): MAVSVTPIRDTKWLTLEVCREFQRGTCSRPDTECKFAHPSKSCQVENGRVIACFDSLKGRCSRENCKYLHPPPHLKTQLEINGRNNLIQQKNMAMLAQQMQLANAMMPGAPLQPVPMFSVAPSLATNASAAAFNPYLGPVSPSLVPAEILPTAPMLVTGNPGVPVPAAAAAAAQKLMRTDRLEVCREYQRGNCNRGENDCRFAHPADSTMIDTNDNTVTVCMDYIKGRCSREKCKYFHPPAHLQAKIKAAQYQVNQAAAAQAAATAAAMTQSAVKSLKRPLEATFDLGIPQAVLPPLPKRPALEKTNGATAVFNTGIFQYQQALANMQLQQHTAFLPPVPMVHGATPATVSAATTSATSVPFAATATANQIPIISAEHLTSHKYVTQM

| SMILES | activity change, negative = inhibition | Potency |
| --- | --- | --- |
| CCCc1cc(=O)[nH]c(NCCc2ccccc2)n1 | inactive: -6.86% | – |
| COc1cc(/C=C2/C(=O)ON=C2C)cc(Cl)c1O | inactive: 12.2% | – |
| CN(C)CCN1C(=O)NC(C)(c2ccc([N+](=O)[O-])cc2)C1=O (stereo not drawn) | – | inconclusive: 11.2 µM [quencher, side channel, partial curve] |
| CCCn1c(C(C)Nc2nc(-c3ccc(C)cc3)cs2)nc2cc(Cl)c(Cl)cc21 (stereo not drawn) | inactive: -0.36% | – |
| N/C(=N\OC(=O)CCCOc1ccccc1)c1ccc([N+](=O)[O-])cc1 | – | inconclusive: 25.1 µM [quencher, side channel, partial curve] |
| O=C1CC(SC(=Nc2ccccc2)Nc2ccccc2)C(=O)N1c1ccc(Cl)c(Cl)c1 (stereo not drawn) | inactive: 5.12% | – |
| CC(=O)Nc1ccc(NC(=O)CCNS(=O)(=O)c2cccc3nsnc23)cc1 | – | inconclusive: 10 µM [quencher, side channel, partial curve] |
| Clc1cccc(/C=N/Nc2nc(Cl)nc3ccccc23)c1 | inactive: -11.3% | – |
| CCOC(=O)c1oc2cc(O)c(CC)cc2c(=O)c1-c1ccc2c(c1)OCCO2 | – | inconclusive: 7.08 µM [quencher, side channel, full curve, poor fit] |
| O=C(O)CCN1C(=O)c2ccc(Oc3ccc([N+](=O)[O-])cc3)cc2C1=O | – | inconclusive: 12.6 µM [quencher, side channel, partial curve] |
| O=C(c1cc(-c2ccccc2)n[nH]1)N1CCc2c([nH]c3ccccc23)C1c1ccccn1 (stereo not drawn) | inactive: 1.91% | – |
| CCOC(=O)c1cc(C#N)c(N2CCN(c3ccccn3)CC2)nc1-c1ccccc1 | inactive: 44.7% | – |
| Cc1c(C(=O)NCc2ccccc2F)oc2ccccc12 | – | inconclusive: 15.8 µM [quencher, side channel, partial curve] |
| CC(O)c1cccc(N=Cc2ccc3ccccc3c2O)c1 (stereo not drawn) | – | inconclusive: 31.6 µM [quencher, side channel, single point] |
| Cc1ccc[n+](CC(=O)Nc2cccc([N+](=O)[O-])c2)c1 | – | inconclusive: 25.1 µM [quencher, single point] |
| CCOc1ccc(N2C(=O)C3=C(C(c4ccc(Cl)cc4)=NCCN3)C2c2cccnc2)cc1 (stereo not drawn) | – | inconclusive: 3.16 µM [quencher, full curve, poor fit] |
| CN1CCN(CCOc2ccc(Cl)c(Cl)c2)CC1 | – | inconclusive: 8.91 µM [quencher, side channel, full curve] |
| O=C(Cc1cccs1)N1CCN(c2ccc([N+](=O)[O-])cc2)CC1 | – | inconclusive: 15.8 µM [quencher, partial curve] |
